Source: PMC6430810 (2019)
Results are given in words; binding and its absence hold for the method and conditions named. For part of these data: Binding seen in cells or lysates may run through a third protein. Some results given as binding are weak or reduced against the parent protein; the word gives no strength. For part of these data: Where a sequence is shown, tags or fusion partners need not be part of it. Blank lines part the entries; values can stand above or below the molecule they belong to.

By UniProt entry, the sequences of proteins in these tests, tags left out.
UniProt P55884: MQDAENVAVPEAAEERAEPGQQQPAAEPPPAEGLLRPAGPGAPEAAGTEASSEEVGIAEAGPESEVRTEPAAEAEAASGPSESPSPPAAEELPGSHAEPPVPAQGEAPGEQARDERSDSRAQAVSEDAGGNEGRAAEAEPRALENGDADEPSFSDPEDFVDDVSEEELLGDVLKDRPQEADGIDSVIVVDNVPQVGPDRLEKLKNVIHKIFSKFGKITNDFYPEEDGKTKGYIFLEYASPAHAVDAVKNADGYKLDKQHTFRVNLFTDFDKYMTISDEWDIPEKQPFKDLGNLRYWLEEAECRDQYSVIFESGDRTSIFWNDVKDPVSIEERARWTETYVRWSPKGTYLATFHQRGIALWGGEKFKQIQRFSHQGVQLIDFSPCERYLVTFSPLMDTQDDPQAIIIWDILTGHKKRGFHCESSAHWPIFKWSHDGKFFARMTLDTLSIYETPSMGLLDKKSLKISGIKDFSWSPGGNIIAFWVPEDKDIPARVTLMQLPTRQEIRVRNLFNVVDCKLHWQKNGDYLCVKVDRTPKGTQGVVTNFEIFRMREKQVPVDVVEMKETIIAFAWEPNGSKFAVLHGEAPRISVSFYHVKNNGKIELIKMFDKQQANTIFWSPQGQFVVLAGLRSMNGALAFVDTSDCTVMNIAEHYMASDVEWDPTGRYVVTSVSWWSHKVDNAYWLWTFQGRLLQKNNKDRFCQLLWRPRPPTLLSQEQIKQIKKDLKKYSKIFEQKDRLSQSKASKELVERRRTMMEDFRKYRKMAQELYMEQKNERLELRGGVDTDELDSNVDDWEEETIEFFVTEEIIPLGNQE
UniProt O15371: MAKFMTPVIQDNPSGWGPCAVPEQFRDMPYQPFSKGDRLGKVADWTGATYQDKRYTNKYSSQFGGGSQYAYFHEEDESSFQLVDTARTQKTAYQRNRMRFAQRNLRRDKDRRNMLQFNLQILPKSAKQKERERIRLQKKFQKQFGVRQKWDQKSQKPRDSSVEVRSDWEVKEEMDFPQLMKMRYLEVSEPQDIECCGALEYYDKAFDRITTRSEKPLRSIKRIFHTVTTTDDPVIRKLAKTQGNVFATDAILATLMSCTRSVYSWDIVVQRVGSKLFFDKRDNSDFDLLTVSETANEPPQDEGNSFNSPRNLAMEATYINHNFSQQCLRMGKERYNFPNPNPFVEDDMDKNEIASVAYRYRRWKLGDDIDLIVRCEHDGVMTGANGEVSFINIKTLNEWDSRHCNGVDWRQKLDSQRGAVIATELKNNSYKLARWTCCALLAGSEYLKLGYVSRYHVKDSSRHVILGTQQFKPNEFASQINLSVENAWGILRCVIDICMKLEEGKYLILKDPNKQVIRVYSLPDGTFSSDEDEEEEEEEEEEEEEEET
UniProt O00303: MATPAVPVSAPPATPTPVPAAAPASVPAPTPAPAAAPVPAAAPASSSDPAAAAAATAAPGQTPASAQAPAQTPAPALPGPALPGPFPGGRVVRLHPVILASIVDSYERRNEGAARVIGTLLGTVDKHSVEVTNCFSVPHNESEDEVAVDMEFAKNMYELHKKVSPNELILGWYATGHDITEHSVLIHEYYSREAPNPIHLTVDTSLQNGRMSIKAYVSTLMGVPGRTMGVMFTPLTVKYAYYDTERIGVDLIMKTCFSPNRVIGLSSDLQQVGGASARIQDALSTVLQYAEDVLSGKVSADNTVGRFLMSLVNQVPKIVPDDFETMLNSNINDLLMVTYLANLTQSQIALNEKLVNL
UniProt Q9Y262: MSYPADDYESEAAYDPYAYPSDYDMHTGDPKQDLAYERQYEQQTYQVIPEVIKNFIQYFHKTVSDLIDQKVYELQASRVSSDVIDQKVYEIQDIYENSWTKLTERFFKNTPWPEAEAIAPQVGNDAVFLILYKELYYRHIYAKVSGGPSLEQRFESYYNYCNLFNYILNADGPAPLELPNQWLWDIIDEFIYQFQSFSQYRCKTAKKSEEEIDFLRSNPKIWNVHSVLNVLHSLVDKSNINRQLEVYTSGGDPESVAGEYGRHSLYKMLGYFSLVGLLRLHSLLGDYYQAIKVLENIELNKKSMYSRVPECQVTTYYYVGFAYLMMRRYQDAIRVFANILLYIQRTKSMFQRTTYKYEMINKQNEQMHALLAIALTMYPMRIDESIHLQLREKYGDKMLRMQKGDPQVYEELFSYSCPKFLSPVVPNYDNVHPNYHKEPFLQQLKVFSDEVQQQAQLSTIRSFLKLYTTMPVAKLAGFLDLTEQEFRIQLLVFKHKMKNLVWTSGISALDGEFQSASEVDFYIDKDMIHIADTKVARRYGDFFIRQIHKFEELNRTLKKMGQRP
UniProt P60842: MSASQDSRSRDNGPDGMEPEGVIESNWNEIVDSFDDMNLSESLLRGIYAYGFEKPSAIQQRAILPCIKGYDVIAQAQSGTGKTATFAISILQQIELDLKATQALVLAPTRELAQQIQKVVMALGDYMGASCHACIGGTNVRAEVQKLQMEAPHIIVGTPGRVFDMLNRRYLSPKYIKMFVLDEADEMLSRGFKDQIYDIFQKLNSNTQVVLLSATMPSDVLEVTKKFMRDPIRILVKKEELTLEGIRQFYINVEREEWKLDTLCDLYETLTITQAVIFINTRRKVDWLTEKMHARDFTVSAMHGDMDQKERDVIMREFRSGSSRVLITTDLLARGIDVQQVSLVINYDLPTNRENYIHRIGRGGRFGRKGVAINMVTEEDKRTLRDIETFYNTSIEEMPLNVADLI
UniProt Q8N5X7: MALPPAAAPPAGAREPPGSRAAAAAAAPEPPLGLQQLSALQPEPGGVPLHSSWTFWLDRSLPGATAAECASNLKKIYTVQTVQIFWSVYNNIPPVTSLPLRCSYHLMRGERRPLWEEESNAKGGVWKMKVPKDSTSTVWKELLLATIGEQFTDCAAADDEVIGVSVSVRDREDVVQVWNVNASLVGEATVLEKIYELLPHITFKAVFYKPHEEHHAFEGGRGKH
UniProt P06730: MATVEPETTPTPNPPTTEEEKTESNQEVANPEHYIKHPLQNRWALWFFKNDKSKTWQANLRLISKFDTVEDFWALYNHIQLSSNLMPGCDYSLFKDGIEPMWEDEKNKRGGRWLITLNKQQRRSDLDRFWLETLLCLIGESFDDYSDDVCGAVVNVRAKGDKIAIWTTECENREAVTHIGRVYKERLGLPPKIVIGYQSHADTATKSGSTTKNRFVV
UniProt Q04637: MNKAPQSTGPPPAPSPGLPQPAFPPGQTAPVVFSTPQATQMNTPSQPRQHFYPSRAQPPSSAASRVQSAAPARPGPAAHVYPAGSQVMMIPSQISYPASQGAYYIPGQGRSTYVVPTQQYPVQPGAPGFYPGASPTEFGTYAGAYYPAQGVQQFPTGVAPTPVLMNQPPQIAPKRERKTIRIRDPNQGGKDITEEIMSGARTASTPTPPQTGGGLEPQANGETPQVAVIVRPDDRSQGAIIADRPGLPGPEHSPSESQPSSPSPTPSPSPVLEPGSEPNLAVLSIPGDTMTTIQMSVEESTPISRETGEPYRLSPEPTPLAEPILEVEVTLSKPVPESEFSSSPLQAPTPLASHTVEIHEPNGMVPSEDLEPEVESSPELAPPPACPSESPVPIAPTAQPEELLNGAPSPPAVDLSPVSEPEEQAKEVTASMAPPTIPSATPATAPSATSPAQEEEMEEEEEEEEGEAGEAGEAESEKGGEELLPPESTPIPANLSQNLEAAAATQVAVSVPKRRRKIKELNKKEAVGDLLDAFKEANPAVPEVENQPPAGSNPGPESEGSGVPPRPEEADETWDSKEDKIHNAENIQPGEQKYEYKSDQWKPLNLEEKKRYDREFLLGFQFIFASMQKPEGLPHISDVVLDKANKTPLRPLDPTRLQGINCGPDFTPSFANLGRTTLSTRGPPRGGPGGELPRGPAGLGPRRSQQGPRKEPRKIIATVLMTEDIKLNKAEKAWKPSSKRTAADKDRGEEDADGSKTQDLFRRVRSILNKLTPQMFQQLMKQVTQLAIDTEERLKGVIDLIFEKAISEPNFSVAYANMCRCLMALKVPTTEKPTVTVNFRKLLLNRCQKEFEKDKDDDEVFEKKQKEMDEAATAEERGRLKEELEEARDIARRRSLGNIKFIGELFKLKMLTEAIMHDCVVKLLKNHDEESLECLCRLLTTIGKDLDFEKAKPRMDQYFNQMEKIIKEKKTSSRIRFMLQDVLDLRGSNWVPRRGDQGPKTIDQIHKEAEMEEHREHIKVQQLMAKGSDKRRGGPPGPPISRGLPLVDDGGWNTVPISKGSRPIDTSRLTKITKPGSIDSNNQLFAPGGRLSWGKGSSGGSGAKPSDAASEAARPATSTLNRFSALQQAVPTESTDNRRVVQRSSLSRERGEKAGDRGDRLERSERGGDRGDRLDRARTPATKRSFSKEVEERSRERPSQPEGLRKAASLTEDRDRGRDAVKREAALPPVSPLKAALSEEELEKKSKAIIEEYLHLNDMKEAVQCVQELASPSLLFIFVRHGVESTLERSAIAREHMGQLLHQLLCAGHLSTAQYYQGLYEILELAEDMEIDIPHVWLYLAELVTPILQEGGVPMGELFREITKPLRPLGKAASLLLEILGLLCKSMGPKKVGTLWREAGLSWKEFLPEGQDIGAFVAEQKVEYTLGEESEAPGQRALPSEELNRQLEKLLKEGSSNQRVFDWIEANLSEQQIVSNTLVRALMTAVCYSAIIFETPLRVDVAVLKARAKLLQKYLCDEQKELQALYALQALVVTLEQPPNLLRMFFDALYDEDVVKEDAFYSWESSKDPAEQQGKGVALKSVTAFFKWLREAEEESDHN
UniProt P60228: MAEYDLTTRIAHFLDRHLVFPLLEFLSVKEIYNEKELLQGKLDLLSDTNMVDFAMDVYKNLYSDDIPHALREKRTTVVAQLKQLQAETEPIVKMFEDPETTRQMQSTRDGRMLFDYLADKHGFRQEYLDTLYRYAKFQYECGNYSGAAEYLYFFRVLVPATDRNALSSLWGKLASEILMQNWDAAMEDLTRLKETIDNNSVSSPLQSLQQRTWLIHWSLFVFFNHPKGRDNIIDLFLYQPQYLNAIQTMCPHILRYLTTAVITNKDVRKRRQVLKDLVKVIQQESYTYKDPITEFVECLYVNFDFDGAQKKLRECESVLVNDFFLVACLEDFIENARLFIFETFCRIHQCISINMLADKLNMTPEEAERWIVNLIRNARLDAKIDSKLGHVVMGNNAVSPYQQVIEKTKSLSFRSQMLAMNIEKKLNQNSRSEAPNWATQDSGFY

Legend:
[1] = target: T1, GST-TRS (human, from E. coli) (human) (UniProt P26639); assay: pull-down; purified GST-TRS on glutathione-Sepharose incubated with 293T lysates holding FLAG-tagged proteins, 4 h at 4 °C; PBS with 0.2% NP-40, 5% glycerol, 1 mM EDTA, 1 mM DTT; anti-FLAG immunoblot; only the target purified
T1 sequence: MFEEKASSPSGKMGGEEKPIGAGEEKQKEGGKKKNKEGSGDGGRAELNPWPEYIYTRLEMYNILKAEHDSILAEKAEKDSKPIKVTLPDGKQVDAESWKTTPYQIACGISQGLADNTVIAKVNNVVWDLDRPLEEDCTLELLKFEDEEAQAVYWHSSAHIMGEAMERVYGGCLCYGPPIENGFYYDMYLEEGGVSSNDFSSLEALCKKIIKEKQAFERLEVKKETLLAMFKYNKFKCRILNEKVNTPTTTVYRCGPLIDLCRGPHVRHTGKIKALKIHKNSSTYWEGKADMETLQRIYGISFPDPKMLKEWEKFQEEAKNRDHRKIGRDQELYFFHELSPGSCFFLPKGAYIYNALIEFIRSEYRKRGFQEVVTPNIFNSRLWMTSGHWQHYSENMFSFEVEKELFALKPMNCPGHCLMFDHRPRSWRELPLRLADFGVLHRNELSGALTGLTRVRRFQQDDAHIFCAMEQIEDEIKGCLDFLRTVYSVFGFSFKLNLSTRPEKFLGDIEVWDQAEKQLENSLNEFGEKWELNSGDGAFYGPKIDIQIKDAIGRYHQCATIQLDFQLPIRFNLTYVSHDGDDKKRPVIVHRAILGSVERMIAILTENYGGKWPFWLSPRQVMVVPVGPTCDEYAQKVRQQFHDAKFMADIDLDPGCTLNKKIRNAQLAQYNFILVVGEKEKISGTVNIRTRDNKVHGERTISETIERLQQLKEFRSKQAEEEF

[2] = target: T2, Myc-TRS (human, wild type) (human) (UniProt P26639); assay: co-IP; Myc-TRS and HA-4EHP (or other tagged proteins) co-expressed in 293T; anti-Myc or anti-HA immunoprecipitation; tag-specific immunoblot
T2 sequence: T1 sequence

[3] = target: T3, human threonyl-tRNA synthetase, Strep-tagged (TRS-Strep) (human) (UniProt P26639); assay: pull-down; TRS-Strep co-expressed with FLAG-tagged proteins in 293T; pulled down with Strep-Tactin beads; anti-FLAG immunoblot
T3 sequence: T1 sequence

[4] = target: T4, TRS-VN (human TRS fused to the Venus N-domain) (human) (UniProt P26639); assay: split reporter; BiFC with Venus; pBiFC-VN173-ARSs co-transfected with pBiFC-VC155-eIF4E isoforms in CHO cells; fluorescence and confocal microscopy
T4 sequence: T1 sequence

[5] = target: T5, endogenous human TRS (human (endogenous in WI-26 and 293T)) (UniProt P26639); assay: co-IP; endogenous proteins in WI-26 cell lysates; anti-TRS or anti-4EHP immunoprecipitation; rabbit or mouse IgG as negative control
T5 sequence: T1 sequence

[6] = target: T6, mouse Myc-TRS (mouse) (UniProt Q9D0R2); assay: co-IP; Myc-TRS and HA-4EHP (or other tagged proteins) co-expressed in 293T; anti-Myc or anti-HA immunoprecipitation; tag-specific immunoblot
T6 sequence: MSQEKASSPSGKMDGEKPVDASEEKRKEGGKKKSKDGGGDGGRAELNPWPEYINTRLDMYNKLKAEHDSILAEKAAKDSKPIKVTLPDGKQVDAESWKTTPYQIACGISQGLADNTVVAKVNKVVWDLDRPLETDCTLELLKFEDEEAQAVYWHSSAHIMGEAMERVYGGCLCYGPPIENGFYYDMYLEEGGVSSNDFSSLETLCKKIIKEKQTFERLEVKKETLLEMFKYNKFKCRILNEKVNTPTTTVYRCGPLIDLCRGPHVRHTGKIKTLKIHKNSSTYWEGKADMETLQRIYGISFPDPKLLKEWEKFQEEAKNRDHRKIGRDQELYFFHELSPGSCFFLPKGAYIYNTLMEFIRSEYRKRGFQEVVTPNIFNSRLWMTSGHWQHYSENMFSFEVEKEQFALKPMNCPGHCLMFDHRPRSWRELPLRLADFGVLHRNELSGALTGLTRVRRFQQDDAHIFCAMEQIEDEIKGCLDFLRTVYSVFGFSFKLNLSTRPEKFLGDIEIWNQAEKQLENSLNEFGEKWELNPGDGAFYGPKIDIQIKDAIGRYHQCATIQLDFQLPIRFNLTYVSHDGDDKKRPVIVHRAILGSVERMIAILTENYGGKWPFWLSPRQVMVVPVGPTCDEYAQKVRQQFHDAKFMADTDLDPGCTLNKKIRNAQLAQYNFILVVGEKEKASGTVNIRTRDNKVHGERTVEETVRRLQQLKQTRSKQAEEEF

[7] = target: T7, nematode Myc-TRS (nematode) (UniProt P52709); assay: as above
T7 sequence: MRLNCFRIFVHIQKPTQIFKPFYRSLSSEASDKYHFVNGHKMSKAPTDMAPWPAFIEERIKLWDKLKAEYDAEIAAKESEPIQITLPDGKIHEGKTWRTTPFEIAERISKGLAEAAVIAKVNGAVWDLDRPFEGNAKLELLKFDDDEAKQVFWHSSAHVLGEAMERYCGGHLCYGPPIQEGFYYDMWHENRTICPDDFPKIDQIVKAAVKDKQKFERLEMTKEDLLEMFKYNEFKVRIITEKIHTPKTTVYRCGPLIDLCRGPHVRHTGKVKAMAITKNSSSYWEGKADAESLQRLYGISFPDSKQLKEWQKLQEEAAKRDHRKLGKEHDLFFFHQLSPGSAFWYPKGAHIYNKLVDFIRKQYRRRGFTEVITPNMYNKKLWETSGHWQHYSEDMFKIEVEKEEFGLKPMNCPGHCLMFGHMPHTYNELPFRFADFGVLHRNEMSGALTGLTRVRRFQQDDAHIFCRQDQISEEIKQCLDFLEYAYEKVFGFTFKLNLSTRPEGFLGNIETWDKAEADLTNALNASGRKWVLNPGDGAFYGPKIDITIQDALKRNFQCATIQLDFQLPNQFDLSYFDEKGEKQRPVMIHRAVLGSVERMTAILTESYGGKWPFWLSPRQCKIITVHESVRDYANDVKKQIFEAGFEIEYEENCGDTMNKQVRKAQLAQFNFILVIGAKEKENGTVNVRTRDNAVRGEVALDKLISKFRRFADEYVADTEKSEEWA

[8] = target: LexA-human TRS fusion protein (human) (UniProt P26639); assay: two-hybrid; yeast LexA-B42 screen; LexA-human TRS as bait against a HeLa cDNA library of B42 fusions

binding [1]: binds
Molecule: FLAG-tagged eIF3 subunit B (human) (from UniProt P55884 1-814)

binding [1]: binds
Molecule: FLAG-tagged eIF3 subunit D (human) (from UniProt O15371 1-548)

binding [1]: binds
Molecule: FLAG-tagged eIF3 subunit F (human) (from UniProt O00303 1-357)

binding [1]: binds
Molecule: FLAG-tagged eIF3 subunit L (human) (from UniProt Q9Y262 1-564)

binding [1]: binds
binding [2]: binds
binding [3]: binds
Molecule: eIF4A-FLAG (human eIF4A1) (from UniProt P60842 1-406) (enzyme)

binding [3]: no binding
Molecule: eIF4E3-FLAG (human) (from UniProt Q8N5X7 1-224)

binding [4]: no binding
Molecule: eIF4E3-VC (eIF4E3 fused to the Venus C-domain) (from UniProt Q8N5X7 1-224)

binding [3]: no binding
Molecule: eIF4E-FLAG (human eIF4E1) (from UniProt P06730 1-217)

binding [4]: no binding
Molecule: eIF4E-VC (eIF4E1 fused to the Venus C-domain) (from UniProt P06730 1-217)

binding [3]: no binding
Molecule: eIF4G-FLAG (human eIF4G1) (from UniProt Q04637 1-1599)

binding [5]: binds
Molecule: endogenous human eIF3 subunit B (from UniProt P55884 1-814)

binding [5]: binds
Molecule: endogenous human eIF3 subunit D (from UniProt O15371 1-548)

binding [5]: binds
Molecule: endogenous human eIF3 subunit E (from UniProt P60228 1-445)

binding [5]: binds
Molecule: endogenous human eIF3 subunit F (from UniProt O00303 1-357)

binding [5]: binds
Molecule: endogenous human eIF3 subunit L (from UniProt Q9Y262 1-564)

binding [5]: binds
Molecule: endogenous human eIF4A (from UniProt P60842 1-406) (enzyme)

binding [6]: binds
B1: mouse HA-4EHP (protein, UniProt Q8BMB3 1-245)
chain: MNNKFDALKDDDSGDHDQNEENSTQKDGEKEKTDRDKSQSSGKRKAVVPGPAEHPLQYNYTFWYSRRTPGRPTSSQSYEQNIKQIGTFASVEQFWKFYSHMVRPGDLTGHSDFHLFKEGIKPMWEDDANKNGGKWIIRLRKGLASRCWENLILAMLGEQFMVGEEICGAVVSVRFQEDIISIWNKTASDQATTARIRDTLRRVLNLPPNTIMEYKTHTDSIKMPGRLGPQRLLFQNLWKPRLNVP

binding [7]: no binding
B2: nematode HA-4EHP (protein, UniProt Q22888 1-212)
chain: MEAETSTQEVVKQVKNLPILMEDAPVGSDDHQLQYSYTFSYFMRPTGKFDPEDYASYVQPVGIMKSVEQFWSIMVHFKRPTEMCDKADIHFFKTGVKPVWEDPANCKGGKWIIRLKKGLSTRIWENLLMAIIGEQFLVGDELCGAVCSIRNQEDIISLWNRNADDTPVTNRIRETLRSVLQLPQNTVLEYKRHDDCLRDQSSYRHTTKNICK

binding [8]: binds
B3: LexA-human TRS fusion protein (enzyme, UniProt P26639 1-723)
chain: T1 sequence
